Test results as given in the supplement of paper PMC4967469.

Key:
Assay in all cases: Viability of human cancer cell lines after 72 h of drug (GDSC screen)
AZD6244 = compound: Cn1cnc2c(F)c(Nc3ccc(Br)cc3Cl)c(C(=O)NOCCO)cc21 [AZD6244]; settings: top dose 4 µM; screen: GDSC drug entry 1498; top dose inferred
Description: (§1)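 Human cancer cell lines in 384-well plates, medium with 10% serum, drug for 72 h over a 256-fold dose range (nine 2-fold or five 4-fold steps up to the top dose). Adherent lines were fixed and stained with the nucleic acid dye Syto60, suspension lines read with resazurin; signal relative to control wells, capped at 0 and 100%. One two-parameter sigmoid per drug and line, fitted in a mixed model over all curves with the slope shared within a line.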

AS601245 = compound: N#CC(c1ccnc(NCCc2cccnc2)n1)c1nc2ccccc2s1 [AS601245]; settings: top dose 8 µM; top dose inferred
Description: as §1

EX-527 = compound: NC(=O)C1CCCc2c1[nH]c1ccc(Cl)cc21 [EX-527]; settings: top dose 20 µM
Description: as §1

YM201636 = compound: Nc1ccc(C(=O)Nc2cccc(-c3nc(N4CCOCC4)c4oc5ncccc5c4n3)c2)cn1 [YM201636]; settings: top dose 5.12 µM; top dose inferred
Description: as §1

Cell Line | AUC (AZD6244) | pIC50 (AZD6244) | AUC (AS601245) | pIC50 (AS601245) | AUC (EX-527) | pIC50 (EX-527) | AUC (YM201636) | pIC50 (YM201636)
SBC-3 (small cell lung carcinoma, adherent) | 0.957 | < 5.40 | 0.761 | 5.58 | 0.96 | < 4.70 | 0.879 | 5.35
SBC-5 (small cell lung carcinoma, adherent) | 0.98 | < 5.40 | 0.8 | 5.51 | 0.993 | < 4.70 | 0.919 | < 5.29
SCC-4 (head and neck, adherent) | 0.795 | 5.64 | 0.769 | 5.45 | 0.98 | < 4.70 | 0.958 | < 5.29
SCC-9 (head and neck, adherent) | 0.523 | 6.53 | 0.93 | < 5.10 | 0.978 | < 4.70 | 0.813 | 5.42
SCC-25 (head and neck, adherent) | 0.81 | 5.61 | 0.785 | 5.41 | 0.983 | < 4.70 | 0.827 | 5.43
SF295 (glioma, adherent) | 0.938 | < 5.40 | 0.792 | 5.40 | 0.982 | < 4.70 | 0.961 | < 5.29
SISO (cervix, adherent) | 0.81 | 5.70 | 0.812 | 5.39 | 0.986 | < 4.70 | 0.927 | < 5.29
SJRH30 (rhabdomyosarcoma, adherent) | 0.979 | < 5.40 | 0.878 | < 5.10 | 0.977 | < 4.70 | 0.986 | < 5.29
SK-CO-1 (large intestine, adherent) | 0.681 | 6.11 | 0.873 | 5.16 | 0.989 | < 4.70 | 0.869 | 5.37
SK-HEP-1 (liver, adherent) | 0.893 | < 5.40 | 0.841 | 5.30 | 0.977 | < 4.70 | 0.969 | < 5.29
SK-LU-1 (lung adenocarcinoma, adherent) | 0.814 | 5.53 | 0.745 | 5.51 | 0.972 | < 4.70 | 0.9 | < 5.29
SK-MEL-3 (melanoma, adherent) | 0.663 | 6.12 | 0.89 | < 5.10 | 0.886 | < 4.70 | 0.791 | 5.57
SK-MEL-24 (melanoma, adherent) | 0.556 | 6.44 | 0.897 | < 5.10 | 0.975 | < 4.70 | 0.803 | 5.49
SK-MEL-30 (melanoma, adherent) | 0.341 | 7.05 | 0.882 | < 5.10 | 0.986 | < 4.70 | 0.917 | < 5.29
SK-MES-1 (lung squamous cell carcinoma, adherent) | 0.784 | 5.73 | 0.788 | 5.41 | 0.971 | < 4.70 | 0.967 | < 5.29
SK-N-AS (neuroblastoma, adherent) | 0.447 | 6.76 | 0.98 | < 5.10 | 0.984 | < 4.70 | 0.928 | < 5.29
SK-N-SH (neuroblastoma, adherent) | 0.966 | < 5.40 | 0.758 | 5.56 | 0.987 | < 4.70 | 0.822 | 5.53
SK-OV-3 (ovary, adherent) | 0.923 | < 5.40 | 0.797 | 5.31 | 0.975 | < 4.70 | 0.908 | < 5.29
SKG-IIIa (cervix, adherent) | 0.926 | < 5.40 | 0.933 | < 5.10 | 0.983 | < 4.70 | 0.981 | < 5.29
SKN (uterus, adherent) | 0.879 | < 5.40 | 0.844 | 5.12 | 0.976 | < 4.70 | 0.853 | < 5.29
SKN-3 (head and neck, adherent) | 0.897 | < 5.40 | 0.943 | < 5.10 | 0.982 | < 4.70 | 0.929 | < 5.29

Cell Line | AUC (AZD6244) | pIC50 (AZD6244) | AUC (AS601245) | pIC50 (AS601245) | AUC (EX-527) | pIC50 (EX-527) | AUC (YM201636) | pIC50 (YM201636)
SN12C (kidney, adherent) | 0.846 | 5.46 | 0.973 | < 5.10 | 0.981 | < 4.70 | 0.986 | < 5.29
SNG-M (endometrium, adherent) | 0.748 | 5.90 | 0.607 | 6.01 | 0.986 | < 4.70 | 0.89 | < 5.29
SNU-182 (liver, adherent) | 0.881 | < 5.40 | 0.901 | < 5.10 | 0.986 | < 4.70 | 0.866 | 5.31
SNU-387 (liver, adherent) | 0.755 | 5.82 | 0.763 | 5.49 | 0.964 | < 4.70 | 0.91 | < 5.29
SNU-398 (liver, adherent) | 0.928 | < 5.40 | 0.635 | 5.92 | 0.959 | < 4.70 | 0.751 | 5.76
SNU-423 (liver, adherent) | 0.866 | < 5.40 | 0.749 | 5.52 | 0.98 | < 4.70 | 0.927 | < 5.29
SNU-449 (liver, adherent) | 0.815 | 5.61 | 0.78 | 5.44 | 0.986 | < 4.70 | 0.938 | < 5.29
SNU-C2B (large intestine, adherent) | 0.872 | < 5.40 | 0.766 | 5.41 | 0.976 | < 4.70 | 0.914 | < 5.29
SU8686 (pancreas, adherent) | 0.934 | < 5.40 | 0.907 | < 5.10 | 0.981 | < 4.70 | 0.982 | < 5.29
SU-DHL-5 (B-cell lymphoma, suspension) | 0.923 | 5.45 | 0.812 | 5.52 | 0.955 | < 4.70 | 0.786 | 5.78
SUIT-2 (pancreas, adherent) | 0.631 | 6.23 | 0.915 | < 5.10 | 0.986 | < 4.70 | 0.861 | 5.33
SW13 (adrenal gland, adherent) | 0.741 | 5.91 | 0.797 | 5.41 | 0.985 | < 4.70 | 0.988 | < 5.29
SW48 (large intestine, adherent) | 0.766 | 5.83 | 0.687 | 5.78 | 0.984 | < 4.70 | 0.959 | < 5.29
SW156 (kidney, adherent) | 0.947 | < 5.40 | 0.908 | < 5.10 | 0.981 | < 4.70 | 0.925 | < 5.29
SW620 (large intestine, adherent) | 0.597 | 6.35 | 0.826 | 5.39 | 0.987 | < 4.70 | 0.956 | < 5.29
SW626 (ovary, adherent) | 0.679 | 6.06 | 0.82 | 5.24 | 0.979 | < 4.70 | 0.928 | < 5.29
SW756 (cervix, adherent) | 0.807 | 5.60 | 0.924 | < 5.10 | 0.98 | < 4.70 | 0.985 | < 5.29
SW780 (bladder, adherent) | 0.668 | 6.11 | 0.977 | < 5.10 | 0.983 | < 4.70 | 0.986 | < 5.29
SW837 (large intestine, adherent) | 0.681 | 6.02 | 0.775 | 5.37 | 0.978 | < 4.70 | 0.948 | < 5.29
SW900 (lung squamous cell carcinoma, adherent) | 0.888 | < 5.40 | 0.758 | 5.50 | 0.98 | < 4.70 | 0.97 | < 5.29
SW948 (large intestine, adherent) | 0.973 | < 5.40 | 0.926 | < 5.10 | 0.979 | < 4.70 | 0.933 | < 5.29

Cell Line | AUC (AZD6244) | pIC50 (AZD6244) | AUC (AS601245) | pIC50 (AS601245) | AUC (EX-527) | pIC50 (EX-527) | AUC (YM201636) | pIC50 (YM201636)
SW982 (soft tissue, adherent) | 0.73 | 5.94 | 0.625 | 5.95 | 0.985 | < 4.70 | 0.939 | < 5.29
SW1088 (glioma, adherent) | 0.831 | 5.44 | 0.863 | < 5.10 | 0.967 | < 4.70 | 0.93 | < 5.29
SW1271 (small cell lung carcinoma, adherent) | 0.66 | 6.12 | 0.686 | 5.74 | 0.984 | < 4.70 | 0.833 | 5.40
SW1463 (large intestine, adherent) | 0.731 | 5.73 | 0.873 | < 5.10 | 0.975 | < 4.70 | 0.978 | < 5.29
SW1573 (lung adenocarcinoma, adherent) | 0.874 | < 5.40 | 0.955 | < 5.10 | 0.98 | < 4.70 | 0.969 | < 5.29
SW1710 (bladder, adherent) | 0.793 | 5.72 | 0.674 | 5.81 | 0.984 | < 4.70 | 0.782 | 5.66
SW1783 (glioma, adherent) | 0.974 | < 5.40 | 0.867 | 5.22 | 0.984 | < 4.70 | 0.986 | < 5.29
SW1990 (pancreas, adherent) | 0.826 | 5.52 | 0.931 | < 5.10 | 0.976 | < 4.70 | 0.985 | < 5.29
Saos-2 (osteosarcoma, adherent) | 0.955 | < 5.40 | 0.84 | < 5.10 | 0.981 | < 4.70 | 0.981 | < 5.29
SiHa (cervix, adherent) | 0.955 | < 5.40 | 0.987 | < 5.10 | 0.984 | < 4.70 | 0.977 | < 5.29
T47D (breast, adherent) | 0.786 | 5.55 | 0.897 | < 5.10 | 0.978 | < 4.70 | 0.816 | 5.29
T84 (large intestine, adherent) | 0.967 | < 5.40 | 0.744 | 5.60 | 0.989 | < 4.70 | 0.887 | < 5.29
T98G (glioma, adherent) | 0.96 | < 5.40 | 0.813 | 5.41 | 0.982 | < 4.70 | 0.948 | < 5.29
T-24 (bladder, adherent) | 0.72 | 5.99 | 0.942 | < 5.10 | 0.989 | < 4.70 | 0.975 | < 5.29
T-T (oesophagus, adherent) | 0.883 | < 5.40 | 0.762 | 5.55 | 0.986 | < 4.70 | 0.893 | < 5.29
TCCSUP (bladder, adherent) | 0.834 | 5.50 | 0.906 | < 5.10 | 0.985 | < 4.70 | 0.95 | < 5.29
TE-11 (oesophagus, adherent) | 0.93 | < 5.40 | 0.396 | 6.58 | 0.989 | < 4.70 | 0.916 | < 5.29
TGBC11TKB (stomach, adherent) | 0.926 | < 5.40 | 0.914 | < 5.10 | 0.98 | < 4.70 | 0.869 | 5.42
TGBC24TKB (biliary tract, adherent) | 0.855 | 5.54 | 0.876 | 5.15 | 0.99 | < 4.70 | 0.897 | < 5.29
TOV-21G (ovary, adherent) | 0.784 | 5.73 | 0.947 | < 5.10 | 0.974 | < 4.70 | 0.96 | < 5.29
TOV-112D (ovary, adherent) | 0.894 | < 5.40 | 0.747 | 5.59 | 0.973 | < 4.70 | 0.839 | 5.45

pIC50: −log10 of the molar value. A lower IC50 marks a more sensitive line; fits outside the tested doses are given as limits. AUC sums up the same curve from the lowest dose to the 256-fold higher top dose; it is 1 without any effect and falls as sensitivity rises. For part of these data: Any top dose called inferred was derived from the fitted curves, not read from the paper. For part of these data: An entry number marks a drug with two screens in the source, which often give different values.
